Test results published in PubChem BioAssay AID504332 (National Center for Advancing Translational Sciences (NCATS), 2011).
Several values for one entry are separate records, joined by “and”; a condition that tells them apart may be missing. Equal entries are not always repeated. Hit rate of the full screen: of about 350,000 compounds, about 31,000 (8.9%) were called active. This list was built around the results that the source calls inconclusive (neither active nor inactive); the mix of calls is not that of the screen. The call rests on the fitted dose curve; in most records, active means well fitted inhibition curve with a large enough effect; inconclusive means small, poorly fitted or top-dose-only effect; inactive means no such curve, though single readings can be large or run the other way. Potencies beside an inconclusive call are fits to weak or partial responses and may not hold up.

molecular target: Histone-lysine N-methyltransferase EHMT2 (Homo sapiens) (UniProt Q96KQ7); experiment: qHTS Assay for Inhibitors of Histone Lysine Methyltransferase G9a; details: G9a H3K9 monomethylation, AlphaScreen, 2 h; activity, negative = inhibition: at 59 µM (top of the series) unless noted; further: nearly all actives have a fitted effect of over 75% in size
Outline: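 G9a (20 nM) was preincubated 15 min with compound, then reacted 2 h at room temperature with 500 nM biotin-H3K9 peptide and 20 µM SAM. Monomethyl-H3K9 detected by AlphaScreen using anti-H3K9me1 antibody.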
On the % scale 0 is the no-effect control and ±100 the full control effect; potency means the concentration at half of the fitted maximal effect; tags describe the fitted curve by direction and shape.

Chain of UniProt Q96KQ7 (Q96KQ7 whole entry, looked up): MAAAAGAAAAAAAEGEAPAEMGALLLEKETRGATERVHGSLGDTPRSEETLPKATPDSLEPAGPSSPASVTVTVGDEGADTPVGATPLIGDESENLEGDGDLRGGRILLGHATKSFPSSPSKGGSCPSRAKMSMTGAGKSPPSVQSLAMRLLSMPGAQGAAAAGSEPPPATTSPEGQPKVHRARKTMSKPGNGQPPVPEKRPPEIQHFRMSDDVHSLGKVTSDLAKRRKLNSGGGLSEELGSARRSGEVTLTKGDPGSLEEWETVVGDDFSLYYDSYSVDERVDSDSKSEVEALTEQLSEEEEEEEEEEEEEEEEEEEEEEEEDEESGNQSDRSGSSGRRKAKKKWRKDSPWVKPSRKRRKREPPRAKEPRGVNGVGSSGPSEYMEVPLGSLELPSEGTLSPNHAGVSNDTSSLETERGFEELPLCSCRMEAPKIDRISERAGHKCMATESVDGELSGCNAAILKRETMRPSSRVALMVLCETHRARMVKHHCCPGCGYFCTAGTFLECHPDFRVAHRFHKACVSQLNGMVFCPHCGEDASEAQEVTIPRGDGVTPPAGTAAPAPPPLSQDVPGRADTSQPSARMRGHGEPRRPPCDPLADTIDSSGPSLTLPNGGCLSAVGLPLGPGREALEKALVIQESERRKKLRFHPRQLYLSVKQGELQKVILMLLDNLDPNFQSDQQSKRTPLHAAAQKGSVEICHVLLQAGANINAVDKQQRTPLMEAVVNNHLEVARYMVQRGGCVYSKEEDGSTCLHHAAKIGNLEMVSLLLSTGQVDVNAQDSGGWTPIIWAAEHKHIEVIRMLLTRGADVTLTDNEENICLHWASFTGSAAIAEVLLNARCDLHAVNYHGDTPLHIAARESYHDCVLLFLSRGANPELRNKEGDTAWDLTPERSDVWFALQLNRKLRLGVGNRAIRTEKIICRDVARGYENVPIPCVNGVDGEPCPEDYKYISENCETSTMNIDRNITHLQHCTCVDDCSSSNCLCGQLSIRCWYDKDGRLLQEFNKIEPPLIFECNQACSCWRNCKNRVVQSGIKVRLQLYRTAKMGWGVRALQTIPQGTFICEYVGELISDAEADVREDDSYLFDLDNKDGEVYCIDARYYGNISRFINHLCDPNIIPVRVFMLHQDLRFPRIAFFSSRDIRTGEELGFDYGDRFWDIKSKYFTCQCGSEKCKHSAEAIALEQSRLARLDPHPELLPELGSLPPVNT

Compound	Potency	activity, negative = inhibition
Fc1ccccc1CSc1nnnn1-c1ccc2c(c1)OCO2	inactive	–
CCOC(=O)c1sc(NNC(=O)c2ccc(F)cc2)nc1C	inconclusive: 44.7 µM [inhibitor, partial curve]	–
O=C(O)COc1ccccc1/C=C1\C(=O)Nc2ccc(Br)cc21	inactive	–
Cc1nc(N)sc1-c1csc(N(C)c2ccc(O)cc2)n1	active: 44.7 µM	–
O=C(CSc1nnc(-c2ccccc2Cl)o1)N1CCCCC1	inconclusive: 0.708 µM [inhibitor, partial curve, poor fit]	–
O=S(=O)(Nc1ccc(Br)cn1)c1cccs1	inconclusive: 31.6 µM [inhibitor, partial curve]	–
Cc1cc(Nc2cccc(F)c2)nc(NCc2ccccc2)n1	inactive	–
COc1ccc2c(c1)c(CC(=O)NCc1cc([N+](=O)[O-])ccc1O)c(C)n2C(=O)c1ccc(Cl)cc1	inconclusive: 79.4 µM [inhibitor, single point]	–
CCOC(=O)C1CCN(C(=O)Cc2cccc3ccccc23)CC1	inconclusive: 2.24 µM [inhibitor, full curve, poor fit]	–
Cc1ccsc1CN1CCN(c2ccccn2)CC1	–	inconclusive: -139% [inhibitor]
Cc1ccc(CN(C)C(=O)c2ccc(S(=O)(=O)N3CCCCCC3)cc2)o1	–	inactive: -13.1% [at 0.501 µM]
CC(=O)/C(C#N)=C1\NC(=O)C(Cc2ccc(C)c(C)c2)S1 (centres undefined)	inconclusive: 79.4 µM [inhibitor, single point]	–
O=C1NC(=O)/C(=C/c2ccccn2)S1	inconclusive: 89.1 µM [inhibitor, single point]	–
Cc1nc2ccc(NC(=S)NC3CC3)cc2nc1C	inactive	–
COc1ccc(-n2c(=O)c3c4c(sc3n(Cc3ccccc3)c2=O)CCC4)c(OC)c1	inconclusive: 28.2 µM [inhibitor, partial curve, poor fit]	–
CCOc1cccc(NC(=O)CSc2ncc(-c3ccc(Cl)cc3)[nH]2)c1	inconclusive: 8.91 µM [inhibitor, partial curve]	–
Cc1csc(NC(=O)c2cc(-c3ccco3)nc3ccccc23)n1	inactive	–
CCOc1ccc2oc(=O)cc(CN3CCN(Cc4ccccc4)CC3)c2c1	inconclusive: 56.2 µM [inhibitor, single point]	–
Cc1nc(-c2ccc(F)cc2)c(CC(=O)N2CCN(S(=O)(=O)c3cccc([N+](=O)[O-])c3)CC2)s1	inconclusive: 56.2 µM [inhibitor, partial curve, poor fit]	–
COc1ccc(N2CCN(CC(O)COc3ccc(C)c(C)c3)CC2)cc1 (centres undefined)	active: 10 µM and active: 31.6 µM	–
CC(C)NC(=O)C(=O)NNC(=O)C12CC3CC(CC(C3)C1)C2	inconclusive: 10 µM [inhibitor, partial curve, poor fit]	–
Cc1ccc(-n2nc3c(=O)n(CC(=O)NCCc4ccc(Cl)cc4)nc(C)c3c2C)cc1	inconclusive: 79.4 µM [inhibitor, single point]	–
COc1ccc(CCNC(=O)CSCc2ccc([N+](=O)[O-])cc2)cc1OC	inactive	–
Cc1oc(-c2ccc(C(=O)N(C)Cc3ccccc3)cc2)nc1CN1CCc2ccccc21	inconclusive: 15.8 µM [inhibitor, partial curve, poor fit]	–
Cc1csc(NC(=O)/C=C/c2ccco2)n1	active: 20 µM	–

Compound	Potency	activity, negative = inhibition
O=C(NCc1ccco1)c1cc(-c2ccccc2)c(N2CCOCC2)s1	inconclusive: 79.4 µM [inhibitor, single point]	–
CC[C@H](C)[C@@H](CN[C@H](CCCCNC)CNC)NCC1CCCC1	inconclusive: 50.1 µM [inhibitor, partial curve, poor fit]	–
COc1cccc(CNC(C)C(=O)Nc2ccc3c(c2)OCCO3)c1 (centres undefined)	active: 44.7 µM	–
CCCCN(CCCC)S(=O)(=O)c1ccc(NC(=O)c2c(-c3ccccc3)noc2C)cc1	inactive	–
O=C(CC1C(=O)OCC2CCCCN21)Nc1ccccc1C(F)(F)F (centres undefined)	active: 44.7 µM	–
CCCCN(CCCC)Cc1ccc(C(=O)NNC(=O)Nc2ccc(F)cc2)o1	inconclusive: 79.4 µM [inhibitor, partial curve, poor fit]	–
O=C(COC(=O)c1ccc(-n2cnnn2)cc1)c1ccc(Br)cc1	inactive	–
CN1CCS/C1=C\C=C1/SC(=S)N(CC(=O)O)C1=O	active: 39.8 µM	–
O=C(CC1C(=O)NCCN1Cc1cccc(F)c1F)NC1CCCCCC1 (centres undefined)	inconclusive: 79.4 µM [inhibitor, single point]	–
CCOc1ccc(-n2c(-c3ccc(OC)cc3)cc3c2CC(C)(C)CC3=O)cc1	active: 14.1 µM	–
COc1ccc(-c2csc3[nH]c(=S)n(-c4ccccc4)c(=O)c23)cc1OC	inconclusive: 39.8 µM [inhibitor, single point]	–
O=C(c1cccc([N+](=O)[O-])c1)N1CCN(S(=O)(=O)N2CCCCC2)CC1	inactive	–
O=C(CSc1nnc2ccccn12)NCCN1C(=O)CSC1=O	inconclusive: 50.1 µM [inhibitor, partial curve, poor fit]	–
Cc1ccc(CN2CCN(/N=C/C=C/c3ccccc3[N+](=O)[O-])CC2)cc1	active: 20 µM	–
S=c1nc(-c2ccccc2)c(-c2ccccc2)n[nH]1	inconclusive: 10 µM [inhibitor, full curve, poor fit]	–
CC(C)NC(=O)C(C)Oc1ccc(S(=O)(=O)NCc2ccc3c(c2)OCO3)cc1 (centres undefined)	–	inactive: -28% [at 0.501 µM]
CC(C)NC(=O)COc1ccc(S(=O)(=O)N2CCOCC2)cc1	inactive	–
CCN(CC)c1ccc2c(c1)OC(N)=C(C#N)C2c1cccnc1 (centres undefined)	inconclusive: 79.4 µM [inhibitor, single point]	–
N[C@@H](C(=O)O)c1ccc(C(=O)O)c(C(=O)O)c1	inactive	–
N#Cc1ccc(C(=O)Nc2nc(-c3cccs3)c(C(=O)C(F)(F)F)s2)cc1	inconclusive: 89.1 µM [inhibitor, single point]	–
COc1ccc(Nc2ccc(N3C(=O)CCCC3=O)cc2[N+](=O)[O-])c(OC)c1	inconclusive: 3.55 µM [inhibitor, full curve]	–
Cc1ccc(NC(=O)Cc2n[nH]c(=S)n2C)cc1	inconclusive: 28.2 µM [inhibitor, partial curve, poor fit]	–
C/C(=N\NC(=O)c1cc(-c2ccco2)nc2ccccc12)c1cccnc1	active: 39.8 µM	–
CCN(CC)CCNc1ncnc2c1sc1nc(N3CCOCC3)c3c(c12)CCCC3	active: 35.5 µM	–
CC(C)NC(=O)c1ccc(COCC(F)(F)F)cc1	inconclusive: 1.58 µM [inhibitor, partial curve, poor fit]	–

Compound	Potency	activity, negative = inhibition
COCCn1c(SCC(=O)c2cccc(OC)c2)nnc1-c1ccco1	inactive	–
CCCCn1c(N)c(N(CCC(C)C)C(=O)COC(=O)c2ccc(CC)cc2)c(=O)[nH]c1=O	inactive	–
Cc1csc(=O)n1CCC(=O)OCC(=O)NNC(=O)c1ccc(Cl)cc1	active: 44.7 µM	–
CCC(C)NC(=O)CNC(=S)N(Cc1ccccc1)Cc1cccnc1 (centres undefined)	inactive	–
COc1cc(/C=C2/C(=O)NN(c3ccc(F)cc3)C2=O)cc(Cl)c1O	active: 28.2 µM	–
Cc1cc(C)cc(NC(=S)NCCCN2CCOCC2)c1	inactive	–
O=C(NNC(=O)C1C2CCCCC21)c1coc(=O)c(Br)c1 (centres undefined)	active: 44.7 µM	–
O=C(c1ccccc1)N(Cc1nc2ccccc2c(=O)[nH]1)C1CCCCC1	inconclusive: 89.1 µM [inhibitor, partial curve, poor fit]	–
COc1ccc(-c2cn(-c3ccc(C)cc3C)c(=O)[nH]2)cc1OC	active: 11.2 µM	–
Cc1c(C(=O)Oc2ccc(Cl)cc2)n(C)oc1=O	inconclusive: 50.1 µM [inhibitor, partial curve]	–
Cc1ccc(NC(=S)NCCc2ccc(Cl)cc2)c(C)c1	inactive	–
CC(NC(=O)c1ccccc1Cl)C1COc2ccccc2O1 (centres undefined)	inactive	–
CCOc1ccccc1C(=O)N1CCc2cc(OC)c(OC)cc2C1COc1ccc2c(C)cc(=O)oc2c1 (centres undefined)	inconclusive: 20 µM [inhibitor, partial curve, poor fit]	–
Cn1cc(Cl)c(-c2n[nH]c(=S)n2-c2ccccc2)n1	active: 8.91 µM	–
CCOC(=O)C1(C(C)(C)CC)CC(CSc2nc3ccccc3[nH]2)OC1=O (centres undefined)	inconclusive: 31.6 µM [inhibitor, single point]	–
CSC1=C(C#N)C(c2ccccc2Cl)C2=C(N1)c1ccccc1C2=O (centres undefined)	active: 15.8 µM	–
CCOC(=O)N1CCN(C(=O)c2c(N)no[n+]2[O-])CC1	inconclusive: 70.8 µM [inhibitor, single point]	–
Cc1ccc(C)c(NC(=O)Cn2ccn(-c3ccc4c(c3)OCO4)c(=O)c2=O)c1	inactive	–
COc1ccc(-c2nc(SCC(=O)NC3CCCC3)c(-c3ccccc3)[nH]2)cc1OC	inconclusive: 28.2 µM [inhibitor, partial curve, poor fit]	–
CCN(CCCNC(=O)C1CCC(=O)N1Cc1ccccc1Cl)c1cccc(C)c1 (centres undefined)	active: 44.7 µM	–
CC(OC(=O)c1ccc([N+](=O)[O-])o1)C(=O)Nc1nc(-c2ccc(F)c(F)c2)cs1 (centres undefined)	active: 28.2 µM	–
S=c1nc(-c2ccccc2)[nH]n1-c1ccccc1	inconclusive: 3.55 µM [inhibitor, partial curve, poor fit]	–
O=C(CSc1ccc(-c2ccco2)nn1)NCc1ccc2c(c1)OCO2	active: 31.6 µM	–
COc1ccccc1N1CCN(C(c2ccccc2)c2nnnn2CCc2ccccc2)CC1 (centres undefined)	inconclusive: 35.5 µM [inhibitor, single point]	–
